In PubChem BioAssay (NCI):
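Growth conditions: 96-well plates. Treatment: test compound, 48 hours, 5 concentrations. Analysis: linear interpolation between bracketing concentrations; unreached endpoints set to highest concentration. Abbreviation: GI50, concentration required for 50% inhibition of growth. Definition used: TGI = concentration required for complete inhibition of growth.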

Tested on: NCI-H322M lung
Test: DTP human tumour cell line panel, 48 h

SMILES | TGI [µM] | GI50 [µM]
c1ccc(CN2C3C4N(Cc5ccccc5)C2C2N(Cc5ccccc5)C(C(N2Cc2ccccc2)N4Cc2ccccc2)N3Cc2ccccc2)cc1 | > 100 | 
CCc1n[nH]c(=O)n1-n1c(C)ccc1C | > 100 | 
COC(=O)CSc1cc(Cl)c(C)cc1S(=O)(=O)Nc1n[nH]c(N)n1 | > 10 | 
CCc1cccc(C(C)C)c1NC(=O)C(=O)Nn1c(=S)[nH]c2ccccc2c1=O | > 100 | 
O=C1NC(=Nc2ccccc2Cl)N/C1=C\c1c(Cl)cccc1Cl | > 100 | 
NC(=S)N/N=C/C(O[C@@H](/C=N/NC(N)=S)CO)n1cnc2c(N)ncnc21 (some centres not stated) | > 100 | 
CC1CCC2C(C)C(OC(=O)CCC(=O)O)OC3OC4(C)CCC1C32OO4 (configuration not stated) | > 100 | 
CC(=O)[CH-]C(=O)c1ccccc1.CC(=O)[CH-]C(=O)c1ccccc1.CC(=O)[CH-]C(=O)c1ccccc1.[Cl-].[Hf+4] | > 100 | 24.3
CN(C)C/C=C/C(=O)Nc1ccc(C(=O)Nc2cccc(Nc3ncc(Cl)c(-c4c[nH]c5ccccc45)n3)c2)cc1 | 0.933 | 0.0527
CC(=O)O[C@H]1[C@@H](OC2CCCC2(c2ccccc2)c2ccccc2)O[N+]([O-])=C[C@@H]1c1ccccc1 (some centres not stated) | 28.3 | 
CN1CCN(CCCCCOc2cc(O)c3c(=O)cc(-c4ccccc4)oc3c2)CC1 | 8 | 2.1
C[C@H]1[C@H]2[C@H](C[C@@]3(C)C4=CC[C@H]5C(C)(C)[C@@H](OC6OCC(O)C(O)C6O)CC[C@@]56C[C@@]46CC[C@]23C)O[C@@]2(O)[C@@H]1OC(C)(C)[C@H]2O (some centres not stated) | 11.7 | 
CC(NC1=NCCO1)c1ccsc1 (configuration not stated) | > 100 | 
CCOC(=O)/C1=C(\C)N(Cc2ccccc2)C(=O)c2ccccc2C(=O)c2c(OC(C)=O)ccc(OC(C)=O)c21 | > 100 | 
